Assay results from patent US20060134248A1, “Hop acids as a replacement for antibiotics in animal feed” (priority 2002, published 2006).

Tests used:
Details in all cases: hop acids 2 ppm, monensin 6 ppm
[1] = test system: rumenal fluid containing a bacterial mixture commonly found in cattle; assay: In vitro fermentation of corn in artificial rumen (gas production, substrate disappearance, end products)
[2] = test system: rumenal fluid containing a bacterial mixture commonly found in cattle; assay: In vitro fermentation of barley in artificial rumen (gas production, substrate disappearance, end products)
[3] = test system: rumenal fluid containing a bacterial mixture commonly found in cattle; assay: In vitro fermentation of alfalfa in artificial rumen (gas production, substrate disappearance, end products)

For `CC[C@@]1([C@@H]2O[C@@H]([C@H]3O[C@@](O)(CO)[C@H](C)C[C@@H]3C)C[C@@H]2C)CC[C@H]([C@]2(C)CC[C@]3(C[C@H](O)[C@@H](C)[C@@H]([C@@H](C)[C@@H](OC)[C@H](C)C(=O)O)O3)O2)O1` [monensin], the “Disappearance, DM” value [1] was 91^a %, the “Disappearance, Starch” value [1] was 95^a % and the “End Products, Acetate” value [1] was 26^f mole %. The “End Products, Butyrate” value [1] was 35^a mole %, the “End Products, Propionate” value [1] was 20^e mole % and the “End Products, Valerate” value [1] was 17^b mole %. For the same compound, the “End Products, pH” value [1] was 5.0^c, the “Gas Production, Rate” value [1] was 8.9^b %/hr and the “Gas Production, Total” value [1] was 398^a mL/72 hr. The “Gas Production, mL/g fermented” value [1] was 233^ab mL/g fermented, the “Disappearance, DM” value [2] was 83^b % and the “Disappearance, Starch” value [2] was 99^a %. For the same compound, the “End Products, Acetate” value [2] was 32^d mole %, the “End Products, Butyrate” value [2] was 28^b mole % and the “End Products, Propionate” value [2] was 24^c mole %. The “End Products, Valerate” value [2] was 14^b mole %, the “End Products, pH” value [2] was 5.0^c and the “Gas Production, Rate” value [2] was 9.1^b %/hr. The “Gas Production, Total” value [2] was 336^a mL/72 hr, the “Gas Production, mL/g fermented” value [2] was 212^bc mL/g fermented and the “Disappearance, DM” value [3] was 60^b %. The “Disappearance, NDF” value [3] was 32^bc %, the “End Products, Acetate” value [3] was 60^c mole % and the “End Products, Butyrate” value [3] was 6^c mole %. For the same compound, the “End Products, Propionate” value [3] was 31^c mole %, the “End Products, Valerate” value [3] was 2^a mole % and the “End Products, pH” value [3] was 5.8^f. The “Gas Production, Rate” value [3] was 9.2^a %/hr, the “Gas Production, Total” value [3] was 320^a mL/72 hr and the “Gas Production, mL/g fermented” value [3] was 263^ab mL/g fermented. The “Gas production (rate, total) versus control, in words” value [3] was “did not reduce” and the “Propionate versus control, in words” value [3] was “increased significantly”.

Marks after values point to notes of the source that are not given here.
